The source of these data is the RNAGym collection of RNA variant scans (doi:10.7554/elife.90254).

B1: LINE1-mini (parent)
chain: GGCAGAGCUCAACACAGCGUGGCAAAGUGGCUGUGGCUAGACUGCC

Read counts are not given, so values of variants with three or more changes are uncertain.

This data set covers variants of B1. In words: self-cleavage, relative activity (ratio to wild type); higher = more cleavage; in vitro, sequencing; the parent is a self-cleaving ribozyme.
On to GGCAGAGCUCAACACAGCUUGGCAAAGUGGCUGUGGCUAGACUUCA [G19U G44U C46A], for which the self-cleavage was 0.04.

GGCAGAGCUCAACACAGCGAGGCAAGGUAGCUCUGGCUAAACUGGC [U20A A26G G29A G33C G40A C45G]: the self-cleavage amounted to 0.09. As for GGCAGAGCUCAACACAGCUAGGCAAAGUGGCUGUGGGUAGUCUGCC [G19U U20A C37G A41U], the figure is 0.04.

Regarding GGCAGAGCUCAACACAGCUUGGCAAAGGGGCUGUGGAUAGGCUGCC [G19U U28G C37A A41G], the self-cleavage was 0.

On to GGCAGAGCUCAACACAGCUUGGCAAAGUGGCUGUGGCUAUGCUGCC [G19U G40U A41G], for which the self-cleavage was found to be 0.05. As for GGCAGAGCUCAACACAGCGAGGUAAAGUGGCUGUGGCCAGACUGCC [U20A C23U U38C], the figure is 0.42; as for GGCAGAGCUCAACACAGCGAGGCACAGUGGGUGUGGCUAGACUGCC [U20A A25C C31G], 0.06. The value for GGCAGAGCUCAACACAGCGAGGAAAAGUUGCUGUGGCUAGACUGCC [U20A C23A G29U] was 0.34; that for GGCAGAGCUCAACACAGCGAGGUAAAGUGGCUGUCGCUAGACUGCC [U20A C23U G35C] was 0.16; that for GGCAGAGCUCAACACAGCUUGGCAAAGGGGCUGCGGCUAGAAUGCC [G19U U28G U34C C42A] was 0.01. The value for GGCAGAGCUCAACACAGCUCGGCAAAGUAGCUGUGUCUAGACUUCC [G19U U20C G29A G36U G44U] was 0.09.

For the variant GGCAGAGCUCAACACAGCGAGGCAAAGUGGCUGUGGCUAGGUUGCC [U20A A41G C42U], the self-cleavage is 0.06. In the case of GGCAGAGCUCAACACAGCGAGGCAAAGUGGCUGUGGCUCGGCUGCC [U20A A39C A41G], the self-cleavage is 0.03. The value for GGCAGAGCUCAACACAGCUAAGCAAAGUGGCUGUGGCUCGACUGCC [G19U U20A G21A A39C] was 0.01. As to GGCAGAGCUCAACACAGCGAGGCAGAGUGUCUGUGGCUAGUCUGCC [U20A A25G G30U A41U], the self-cleavage stood at 0.05.

GGCAGAGCUCAACACAGCGAGGUAAAGUUGCUGUGGCUAGACUGCC [U20A C23U G29U]: the self-cleavage was 0.29.

Consider GGCAGAGCUCAACACAGCGAGGCAAAGUGGCUGUGGCUCGACUUCC [U20A A39C G44U], for which the self-cleavage stood at 0.03. As for GGCAGAGCUCAACACAGCUCGGCAAAGUGGCUGUGGCGAGACUGCC [G19U U20C U38G], the self-cleavage was determined as 0.01.

Turning to GGCAGAGCUCAACACAGCUUGGCAAAGUGGCGGUGGAUAGAUUGCC [G19U U32G C37A C42U], the self-cleavage was 0.06. The value for GGCAGAGCUCAACACAGCGAGGCAAAGUGGCUGUGGCUAGCCCGCC [U20A A41C U43C] was 0.04; that for GGCAGAGCUCAACACAGCGAGGGAAAGUGGCAGUGGGUAGACUGCC [U20A C23G U32A C37G] was 0.06. As for GGCAGAGCUCAACACAGCGAGGCUAAGUGGCUGAGGCUAGACUGCC [U20A A24U U34A], the figure is 0.11; as for GGCAGAGCUCAACACAGCUUGGCAAAGUGGCUGUGUCGAGACUGCC [G19U G36U U38G], 0.03; as for GGCAGAGCUCAACACAGCUUGGCAAAGAGGCUGUGCCUAGACUGCC [G19U U28A G36C], 0.05.

As for GGCAGAGCUCAACACAGCUAGGUAAAGUGGCUGUGGCUAUACUGAC [G19U U20A C23U G40U C45A], the self-cleavage was determined as 0.01. The value for GGCAGAGCUCAACACAGCGAGGAAAAGUGGCUGUGGCUAUACUGUC [U20A C23A G40U C45U] was 0.04; that for GGCAGAGCUCAACACAGCUUGGCAAAGUGGCUGCGGCUACGCUGCC [G19U U34C G40C A41G] was 0.08; that for GGCAGAGCUCAACACAGCGAGGAAAUGUGGCUGUGGCUAGACUGCC [U20A C23A A26U] was 0.67. With GGCAGAGCUCAACACAGCUUGGCAAAGCGGCUGGGGCAAGACUGCC [G19U U28C U34G U38A], the self-cleavage worked out at 0.13. The value for GGCAGAGCUCAACACAGCUGGGCGACGUGGCUGUGGCUAGACUGCC [G19U U20G A24G A26C] was 1.16. As for GGCAGAGCUCAACACAGCUUGGCAAAGCGGCUGUGGCUACACUGCC [G19U U28C G40C], the self-cleavage was 0.09. The value for GGCAGAGCUCAACACAGCUUGGCAAAGUGGCUGAGGCCAGACUGCC [G19U U34A U38C] was 0.09. The value for GGCAGAGCUCAACACAGCUAAACAAAGUGGCUAUGGCUAGACUGCC [G19U U20A G21A G22A G33A] was 0.66. As for GGCAGAGCUCAACACAGCGAGGCACAGUCGCUGUGGCUAGACUGCC [U20A A25C G29C], the figure is 1.51; as for GGCAGAGCUCAACACAGCGAGGUAAUGAGGCUGUGGCUAGAUUGCG [U20A C23U A26U U28A C42U C46G], 0.02. Regarding GGCAGAGCUCAACACAGCGAGGCAAUGUAGCUCUGCCUAGACUGCC [U20A A26U G29A G33C G36C], the self-cleavage is 0.01.

GGCAGAGCUCAACACAGCUAGGUAAAGUGGCUGUGGCUAGACUGCC [G19U U20A C23U]: the self-cleavage was found to be 2.27. Turning to GGCAGAGCUCAACACAGCUAGGAAAAGUGGCUGUGGCUAGACUGCC [G19U U20A C23A], the self-cleavage was 0.3. Consider GGCAGAGCUCAACACAGCUUGGCAAAGGGGCUAUGGCUAGAGUGCC [G19U U28G G33A C42G], for which the self-cleavage worked out at 0.03. As for GGCAGAGCUCAACACAGCUUGGCAAAGUGGCUGAGGCUAGUCUGCC [G19U U34A A41U], the figure is 0.07; as for GGCAGAGCUCAACACAGCGAGGGAAAGUGACUGUGGCUAAACUGCC [U20A C23G G30A G40A], 0.02; as for GGCAGAGCUCAACACAGCUAGGCAAAGAGGCUGUGGCUACACUGCC [G19U U20A U28A G40C], 0.02.

Consider GGCAGAGCUCAACACAGCUCGUCAUAGUGGCUGUGGCUAGACUGCC [G19U U20C G22U A25U], for which the self-cleavage worked out at 0.8. The value for GGCAGAGCUCAACACAGCUUGGCAAAGUGGCUGUGGCUAGACCGAC [G19U U43C C45A] was 0.16. GGCAGAGCUCAACACAGCGAGGCAGAGUUGCUGUGGCUAGGCUGCC [U20A A25G G29U A41G]: the self-cleavage was 0.2. On to GGCAGAGCUCAACACAGCUAGGCAAAGAGGCUGUGGCUGUUCUGUU [G19U U20A U28A A39G G40U A41U C45U C46U], for which the self-cleavage was 0.05. As for GGCAGAGCUCAACACAGCGAGGAAAAGUGGCUGUGGCUAGACUGCU [U20A C23A C46U], the self-cleavage came out at 0.32. The value for GGCAGAGCUCAACACAGCUUGGCAAAGCGGAUGUGGCUAGACUGCC [G19U U28C C31A] was 0.02; that for GGCAGAGCUCAACACAGCGAGGCAGAUUGGCUGUGGCUCGACUGCC [U20A A25G G27U A39C] was 0.04. As for GGCAGAGCUCAACACAGCGAGGCAACGUGGCUUUGGCUAGACUGGC [U20A A26C G33U C45G], the figure is 0.08; as for GGCAGAGCUCAACACAGCUUGGCAAAGCGGCUGUGGCGAGACUGCC [G19U U28C U38G], 0.02.

Turning to GGCAGAGCUCAACACAGCUUGGCAAAGUGGCGGUGGCUAGACUUCC [G19U U32G G44U], the self-cleavage turned out to be 0.03. GGCAGAGCUCAACACAGCGAGGCUAAGUGGCUGUGGCUAGACUUCC [U20A A24U G44U]: the self-cleavage came to 0.15. As for GGCAGAGCUCAACACAGCUCGGCAAAGUGGCUGUGGCUAGUCUGCC [G19U U20C A41U], the figure is 0.39; as for GGCAGAGCUCAACACAGCGAGGCAAGGUGGCUCCGGCUAGACUGUC [U20A A26G G33C U34C C45U], 0.04. The value for GGCAGAGCUCAACACAGCGAGGCCAAGUGGCUGUGGCUAGGCUGCC [U20A A24C A41G] was 0.04.
